# Over roughly 33,000 sequences, “E-score (-0.5 to 0.5)” has its median near -0.01; the highest 2% begin near 0.26. This is one part of the list.
# Target: Ste12 (UniProt P13574)
# Test: PBM E-score (8-mer binding enrichment) (E-score (-0.5 to 0.5)); higher = stronger / more preferred TF binding; most listed sequences are background and not binding sites
# Conditions: protein concentration: 200 nM; construct: GST-DNA-binding domain
# Method in brief: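 E-scores (a modified Wilcoxon-Mann-Whitney statistic) were assigned by the Universal PBM Analysis Suite to every ungapped eight-base word pooled with its reverse complement. The input came from universal all-10-mer Agilent arrays made double-stranded by primer extension and probed with GST-tagged yeast transcription factors at about 100-200 nM. Fluorescent anti-GST detected bound protein, and masliner normalised the scans.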
row,Sequence,PBM E-score
1,CAGTGGAC,-0.142
2,CGGAGCAG,-0.0602
3,ATGCCTCA,-0.0959
4,GCTGGCGA,-0.183
5,GTAGTAGA,-0.0701
6,CAACAACA,0.0763
7,CGCCAGCA,-0.175
8,TATATGCA,-0.0848
9,AATTGTGG,0.0282
10,ATAGTTAC,0.128
11,ACAGGTCG,-0.00175
12,AACCAACC,-0.0148
13,CACGTTAC,0.0456
14,CTTACTTA,0.0504
15,GGTGTAAA,0.17
16,CTACACTA,0.0659
17,ATTAATCG,0.273
18,GGCTCTGA,-0.0372
19,ATCACTTA,-0.0583
20,GTGGGGCA,0.22
21,CTGTAGGC,-0.0889
22,TCTCATCA,0.0267
23,ATTATCCA,0.0202
24,GGTTTCTA,0.147
25,CTGTGTTA,0.00985

row,Sequence,PBM E-score
1,CCGGCCAA,-0.0341
2,GATTTAAC,0.168
3,CTACGGCA,-0.173
4,GTCGTTCA,-0.031
5,GACATACC,-0.0747
6,ACACTCGG,-0.0306
7,GCTGGGAC,-0.0751
8,ATACACTG,-0.00096
9,GTATGAAC,-0.018
10,AATCACTG,0.146
11,GCACCCTA,-0.209
12,AATCCGTA,-0.215
13,AATCTTTC,0.13
14,CACGTCTA,-0.108
15,GGTTATAC,-0.145
16,CGGTGCGC,0.106
17,CACTGCTC,0.0119
18,CTATACAG,-0.121
19,CGCACGAG,-0.0916
20,AGTTCTTA,-0.116
21,AAGACACT,0.0756
22,AGGTCTGG,-0.228
23,ATATACCC,0.142
24,CGCGAGCG,0.00505
25,ATGAGAAT,0.023

row,Sequence,PBM E-score
1,TCAGATAA,0.0963
2,AGGCATCA,-0.261
3,CGAAGAGA,0.0185
4,ACGCCCAG,-0.0708
5,CGCCGACC,-0.229
6,CCGCACCC,0.222
7,AGGAAGCG,0.0486
8,ACGGACCT,-0.0369
9,GGCGGGCA,0.0526
10,AACAGTCC,-0.0507
11,AGATCGCA,-0.0394
12,AGTAGGAG,-0.119
13,GGGGTAAA,0.202
14,AGAAGGTG,0.159
15,CCGCTAGA,-0.165
16,GGGACTGA,-0.163
17,CTGGATGA,-0.103
18,AGAAAGCT,0.148
19,ATAGGGGC,0.02
20,GCAGTGGC,-0.0925
21,CACCAGTA,-0.19
22,CCGTGAGC,-0.281
23,ACCGTTCC,-0.0772
24,AGAGACGA,-0.0683
25,AATTATGT,0.0801

row,Sequence,PBM E-score
1,AAACGTCG,0.173
2,CCGAATCG,0.0364
3,AGACCACA,-0.0546
4,AGAAGAGC,-0.161
5,ACTACGCG,-0.159
6,GAACTGGC,-0.102
7,CGAGCATA,0.0338
8,GTAACTGA,-0.0708
9,CAAGGCTC,-0.348
10,CCCGTCCC,0.195
11,GTTGTGGA,0.0284
12,CGAAAAAC,0.0959
13,GGATGCAA,0.0505
14,AAGTGCCA,-0.0606
15,CGATCGTC,-0.0299
16,CCACAGTC,-0.163
17,CAGCGTAA,-0.016
18,AAACATAT,0.273
19,AAACTGGA,0.158
20,CATTACAA,0.127
21,TCAACCGA,-0.0418
22,CAGTATGG,-0.016
23,AACGTCGT,-0.038
24,GTGTAGTA,-0.0104
25,CTGGCTGA,-0.22

row,Sequence,PBM E-score
1,AGCGTACG,-0.142
2,AGGGTCAT,-0.12
3,AACCCCGA,0.209
4,TGAGCGAA,0.0547
5,GGGCCCCC,-0.236
6,ACCTTAGC,-0.00188
7,CCGTAAGA,-0.0646
8,CTAGAACA,-0.0367
9,CTAGGGAG,-0.136
10,TGGTCCAA,0.0063
11,GAAAGCAA,0.0527
12,ACACGATA,-0.0375
13,GACCTAAA,0.0227
14,AGGTAGGA,-0.0176
15,AGATCCAG,-0.0172
16,ATCAGTTC,-0.075
17,AATCGCGT,0.00814
18,CTCCACTA,0.0109
19,GAGAGCTC,-0.175
20,TCACCTAA,0.00859
21,CATTCGCA,0.0612
22,GAATGTGA,0.0826
23,AGTTGGAA,0.0446
24,AATCGGTA,-0.0358
25,CTCAAAGC,-0.00428

row,Sequence,PBM E-score
1,CCCACCAA,0.0792
2,AAGGCCCT,-0.108
3,ATTAATAG,0.283
4,AGTCGCAA,0.0889
5,ATAGCTTG,-0.0583
6,ACGCTGAT,-0.042
7,AACCGGCT,-0.112
8,GTAAAATA,0.131
9,GTCAGGAA,0.0687
10,CAGTGTCC,-0.0612
11,CCACCTTA,0.0736
12,GCTTAAAA,0.31
13,CATTTCCA,0.0625
14,ATACTGCC,-0.049
15,AATTGGTG,0.137
16,GCGTCCAC,-0.322
17,ACGGCGTC,0.0249
18,CGTATAAC,-0.0972
19,CGATATCC,0.111
20,AATGAGCG,0.0838
21,CTCGCAAG,0.107
22,AGTATTAA,0.242
23,CAACTGAA,0.201
24,ATGGGGCA,-0.116
25,GGAGATCA,0.0915

row,Sequence,PBM E-score
1,ACCCAGGC,0.145
2,CCGCCGAA,0.13
3,CGCGGGAA,0.161
4,GTGAGTTA,0.0664
5,AGTGATGA,0.0858
6,GGACATAA,0.0357
7,AGCACCCC,-0.222
8,AACAAGTC,0.0306
9,AAGACATA,0.0632
10,CTCGGGGA,-0.0552
11,CTCCAGAA,-0.152
12,ACATCTAT,0.222
13,GTGTTGTA,-0.0484
14,CAACACCC,-0.0603
15,CGGCGGTC,-0.149
16,CCTCACTC,0.0329
17,AGGCTAAC,-0.212
18,TAGTAAGA,-0.0976
19,ATAATAAG,0.225
20,CTCGCCCC,0.0507
21,CCCATGTC,-0.133
22,CTCCCTTA,-0.103
23,TAGAATCA,-0.00673
24,ACTAGTGA,-0.101
25,ATTAACCC,0.0736

row,Sequence,PBM E-score
1,CCATCCTA,-0.0973
2,CGGGCCAC,0.0179
3,AAAACTTG,0.203
4,GCAGCCGC,-0.0789
5,CTAAATTA,0.163
6,GCTTGGAC,-0.208
7,AGTAGCGC,-0.0571
8,GGTCGCCA,-0.046
9,AATGCGAC,0.161
10,CACGGGAC,-0.133
11,GCCCAAGC,-0.106
12,AACTGACC,-0.142
13,CGATGTAA,-0.0249
14,GGATCTAC,-0.172
15,ATACAAGA,-0.0485
16,ACGCGTAG,-0.129
17,CATCACGG,-0.0401
18,CTCCATCC,-0.16
19,AACAACCA,0.0498
20,GGTATGGA,0.0631
21,CTAAGCAC,-0.0297
22,GACTAGGC,-0.0762
23,TCGAAAGA,0.127
24,CCCAATGA,-0.153
25,AAGGTGCT,-0.0924

row,Sequence,PBM E-score
1,CGCAAGTC,-0.147
2,AGTGTATC,0.141
3,CCCTTGCG,-0.0882
4,ATGCGTAA,0.0221
5,TATACCCA,-0.0142
6,AGAGCACT,-0.0697
7,CGGGTATA,0.0149
8,AGGGTCGG,-0.154
9,GCCCACTA,-0.15
10,AGCCTATA,0.0978
11,CCGCTGGC,-0.159
12,GAAACACC,0.311
13,CATAAGGG,0.183
14,AGTGAGAT,-0.0563
15,AATTGATC,0.0104
16,AGTCCCCG,-0.0595
17,GCCGAGCC,-0.0318
18,ACACTCGA,-0.0149
19,GTTAGTTA,0.0712

# Source: the supplement of paper PMC3334620
